Measurements as given in US20090123389A1, “Methods for modulating Th17 cell development in the treatment and prevention of cellulite” (priority 2007, published 2009).

Tested on: amino acid response (AAR) pathway
Assay: eIF2α phosphorylation and ATF4 protein in T cells (immunoblot)
Type: cell-based, mouse
Conditions: tunicamycin 1 μg/ml or 10 nM HF, 4 hours
Procedure: Whole cell lysates were prepared 4 hours-post TCR activation and immunoblotting was performed with the indicated antibodies. ATF4 protein is indicated by arrowhead. NS—non-specific band.
FIG. 12E is an illustration depicting immunoblot analysis of purified CD4^+ CD25^− T cells activated through the TCR for the indicated times without exogenous cytokines in the presence of either 10 nM MAZ1310 or 10 nM HF as indicated. Whole cells lysates were prepared during the timecourse and immunoblotting was performed.
Cultures were further supplemented with either 10 nM MAZ1310 or 10 nM HF as indicated. Whole cell lysates were generated 4 hours after activation and immunoblotting was performed. Microarray data were generated from triplicate samples and all other data are representative of at least 2 similar experiments.
Western blotting: Whole cell lysates were generated from T cells activated for the indicated times. For STAT3 and Smad2/3 western blots cells were harvested, washed in PBS and lysed in 50 mM Tris, pH 7.4, 0.1% SDS, 1% Triton-×100, 140 mM NaCl, 1 mM EDTA, 1 mM EGTA supplemented with protease inhibitors tablets (Roche—Germany), 1 mM NaF and 1 mM Na3VO4. For eIF2α and ATF4 western blots, cells were harvested as above and lysed in 50 mM Tris, pH 7.4, 2% SDS, 20% glycerol and 2 mM EDTA supplemented with protease and phosphatase inhibitors as above. […]

tunicamycin
eIF2α phosphorylation and ATF4 expression in activated T cells: induced eIF2α phosphorylation and ATF4 expression

O=C(CC1NCCCC1O)Cn1cnc2cc(Br)c(Cl)cc2c1=O (racemic) [HF, 7-bromo-6-chloro-3-[3-(3-hydroxy-2-piperidinyl)-2-oxopropyl]-4(3H)-quinazolinone]
eIF2α phosphorylation and ATF4 expression in activated T cells: inducing eIF2α phosphorylation
